Measured values from publication PMC6919601, “Identification of Plasmodium dipeptidyl aminopeptidase allosteric inhibitors by high throughput screening” (PLoS ONE, 2019).
About 230 (0.21%) of roughly 110,000 compounds showed an effect of 50% or more. Some of the results follow.

target: DPAP1 (Plasmodium falciparum, UniProt Q8IIJ9); assay: primary screen, percent inhibition; read by cleavage of a fluorogenic dipeptide substrate; higher = more effect of the substance; parameters: species or system P. falciparum D10 trophozoite lysates; single well
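Note: 30 min substrate incubation versus DMSO and 10 µM JCP410 controls.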

DPAP1, sequence (Q8IIJ9 whole entry, looked up): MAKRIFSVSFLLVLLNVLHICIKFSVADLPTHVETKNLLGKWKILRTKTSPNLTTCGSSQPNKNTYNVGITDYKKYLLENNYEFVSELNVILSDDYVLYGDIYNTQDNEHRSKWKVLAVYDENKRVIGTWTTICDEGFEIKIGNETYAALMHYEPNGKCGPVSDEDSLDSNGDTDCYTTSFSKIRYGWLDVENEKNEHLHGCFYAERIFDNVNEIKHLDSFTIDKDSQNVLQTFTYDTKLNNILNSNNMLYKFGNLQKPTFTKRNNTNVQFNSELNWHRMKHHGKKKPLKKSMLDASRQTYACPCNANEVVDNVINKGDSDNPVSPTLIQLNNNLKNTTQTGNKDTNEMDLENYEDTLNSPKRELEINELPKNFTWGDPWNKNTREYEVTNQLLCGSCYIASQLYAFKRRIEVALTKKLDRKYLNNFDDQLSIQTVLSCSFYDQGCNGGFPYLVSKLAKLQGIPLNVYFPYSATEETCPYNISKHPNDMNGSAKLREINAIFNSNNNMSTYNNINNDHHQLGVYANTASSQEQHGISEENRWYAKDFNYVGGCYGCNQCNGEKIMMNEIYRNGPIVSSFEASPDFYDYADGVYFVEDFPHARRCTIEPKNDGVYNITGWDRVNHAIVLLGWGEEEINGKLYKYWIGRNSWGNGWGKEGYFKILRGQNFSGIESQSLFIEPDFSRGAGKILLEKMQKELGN

Structure (SMILES)	% Inhibition @ 10 uM
CCc1ccc(OCCSc2nc(-c3ccccc3)nc3cc(=O)[nH]n23)cc1	0.586%
CN(CCNC(=O)Cn1ncc2c3ccccc3n(C)c2c1=O)C1CCCCC1	6.46%
C#CCOc1ccc(Br)cc1C1C(C#N)=C(N)Oc2cc(O)ccc21 (centres unmarked)	2.25%
CNC(=O)c1cc2oc3ccccc3c2n1C	1.22%
CCN(CC)CCn1c(NCc2ccc(C)cc2)nc2ccccc21	2.31%
O=c1/c(=C/c2cccc3ccccc23)sc2ncnn12	1.91%
CC(=O)Nc1ccc(N2C(=O)CC(NC3CCN(Cc4ccccc4)CC3)C2=O)cc1 (centres unmarked)	-3.85%
COc1ccc(-c2noc(CN(C(=O)C3CCCCC3)C(C)C)n2)cc1	-0.0593%
CC(C)(C)/C(O)=C/C=N/c1ccccc1Oc1ccccc1	-3.16%
Cc1cccn2c(=O)c(/C=C(\C#N)C(=O)NCc3ccco3)c(Oc3ccc(C(C)(C)C)cc3)nc12	2%
O=C(CSc1nnnn1-c1ccccc1F)NCc1ccco1	-0.403%
CNC(=O)c1oc2c(c1C)-c1nn(Cc3ccc(Cl)cc3)cc1CC2	4.33%
CN(C)c1nc(N)nc(CSc2nnc(CCc3ccccc3O)n2-c2ccccc2)n1	-0.403%
COc1ccc(NC(=O)CN2C(=O)c3ccccc3S2(=O)=O)cc1	-2.74%
O=C(O)c1cnc2c(F)c(F)c(F)c(NCc3ccccc3)c2c1O	-1.85%
O=C1OC(c2cc(F)c(F)cc2Cl)=N/C1=C\c1cccs1	6.11%
CCOc1cccc(NC(=O)C2CC(=O)N(c3cccc(Cl)c3C)C2)c1 (centres unmarked)	3.17%
CC(c1ccccc1)n1cncc1C(=O)N1CCCC1=O (centres unmarked)	4.1%
O=C(NC1(C(F)(F)F)NC(=O)N(C2CCCCC2)C1=O)c1ccco1 (centres unmarked)	0.221%
COc1ccc(NC(=O)C2=C(C)Nc3ncnn3C2c2ccc(Cl)cc2Cl)cc1 (centres unmarked)	-1.26%
O=c1c(N2CCC(Cc3ccccc3)CC2)csc2ccccc12	1.81%
COc1ccc(/C=C\c2onc(C)c2S(=O)(=O)N2CCC(C(=O)NCC3CCCO3)CC2)cc1 (centres unmarked)	-6.89%
CN(CCc1ccccn1)C1CCc2ccccc2C1 (centres unmarked)	-3.27%
NC(=O)c1ccccc1NC(=O)CCC1CCCC1	-3.18%
CCC[C@@H](/C=C/S(=O)(=O)c1ccccc1)NC(=O)[C@H](Cc1c(F)cccc1F)NC(=O)c1ccc(-c2cc(C(=O)OC)ccc2Cl)cc1	-0.207%
CNC(=O)c1ccc2nc(-c3ccc(F)cc3)c(-c3ccc(F)cc3)nc2c1	7.61%

Structure (SMILES)	% Inhibition @ 10 uM
Cc1cccc(-c2oc(C)c(C)[n+]2[O-])c1	-4%
Cc1ccc(S(=O)(=O)Nc2ccnc(C(=O)NCc3ccc(F)cc3)c2)cc1	1.25%
O=c1oc2cc3oc4c(c3cc2c2c1CCC2)CCCC4	2.54%
CN(C)c1ccc(CN2CCN(Cc3ccccc3)CC2)cc1	-5.41%
Cc1cc(C)c(Cc2c(C)nc3c(C(=O)NCc4ccccc4)cnn3c2C)c(C)c1	-0.406%
CCCc1cc(O)n2nc(Cc3ccccc3)c(-c3ccc(Cl)cc3)c2n1	-5.62%
Cc1nc(SCc2ccc(Cl)cc2)nc2ccccc12	2.3%
COC(=O)NC1C=CS(=O)(=O)C1 (centres unmarked)	-4.51%
O=C(O)c1cnc2c(ccc3ccccc32)c1O	3.76%
COC(=O)CSC1=C(C#N)C(c2ccc(Cl)cc2Cl)CC(=O)N1 (centres unmarked)	1.13%
Brc1ccccc1-c1nnc2sc(-c3cnccn3)nn12	-2.21%
CCOC(=O)C1=C(Cn2ccc(C(F)(F)F)n2)NC(=O)NC1c1cc(C)ccc1C (centres unmarked)	-5.4%
CNC(=O)N(C)C(=O)NC1CCCCCCCCCCC1	-4.43%
C=CCOc1ccc(/C=c2/sc3nc(=O)c(Cc4ccc(F)cc4)nn3c2=O)cc1OC	-2.29%
COc1cc(CNC2CC3CCC2C3)cc(OC)c1 (centres unmarked)	-3.8%
COc1ccc(C2Nc3ccccc3N=C3CC(c4cccs4)CC(O)=C32)c(OC)c1OC (centres unmarked)	0.777%
Cc1cc(C)c(S(=O)(=O)NCCc2nc3ccccc3[nH]2)c(C)c1	2.99%
CCOC(=O)c1c(CN(CC)CC)n(C)c2cc(Br)c(O)cc12	-4.61%
O=c1c2c3c(sc2nc(SCc2ccccc2)n1-c1ccccc1)CCC3	-2.2%
Cc1ccc(C2=N/C(=C\c3ccc(Br)o3)C(=O)O2)cc1	-2.27%
Cn1cc(C(=O)NCc2ccc(F)cc2)cn1	-6.42%
CCc1ccc(C2=NN(CCC(=O)NCc3ccc(OC)cc3)C(=O)CC2)cc1	-6.4%
OCCNc1nc(O)c2c(ncn2Cc2ccccc2)n1	-1.74%
O=C(Nc1ccccc1)Nc1ccc(F)c(Cl)c1	-2.18%
Cc1ccccc1-c1nc(O)c2c(n1)Oc1ccc(F)cc1C2	0.444%
COc1ccc(C(CC(=O)NCc2ccccc2OC)N2Cc3ccccc3C2=O)cc1 (centres unmarked)	-8.48%

Structure (SMILES)	% Inhibition @ 10 uM
O=S(=O)(c1ccccc1)n1nc(-c2cccnc2)nc1NCc1ccco1	-6.64%
O=S(=O)(Nc1ccc(Cl)cc1Cl)c1cc(Cl)ccc1Cl	3.85%
O=C(O)CCNC(=O)/C(=C/c1ccc2c(c1)OCO2)NC(=O)c1cccc(Br)c1	0.851%
CCOc1ccc(S(=O)(=O)N2CN3CCN(C3)C2)cc1	-1.11%
O=C(Cn1cnc2c(nnn2-c2ccc(F)cc2)c1=O)N1CCCCCC1	-2.16%
Cc1ccc(CNC(=O)c2cc(C3CC3)[nH]n2)o1	-4.46%
CC1CCC(C(C)C)C(OCC(O)CN2CCN(C)CC2)C1 (centres unmarked)	-6.09%
Cc1cccc(-c2nc(C#N)c(N3CCN(c4ccccc4)CC3)o2)c1	0.673%
Cc1cccc(N2C(=O)C3CCC(C)CC3C2=O)c1 (centres unmarked)	-6.07%
COc1ccc(Br)cc1/C=N\n1c(C)nnc1C	-2.13%
CCOCCCn1c(=N)c(C(=O)NCc2cccnc2)cc2c(=O)n3cccc(C)c3nc21	-3.27%
O=C1C(Cl)=C(N2CCCCC2)C(=O)c2ccccc21	5.98%
O=C(NCCc1ccccc1)C1CCCN(S(=O)(=O)c2cccc3cccnc23)C1 (centres unmarked)	-4.69%
CCCn1cc(CC(C(=O)O)C(=O)O)c2ccccc21	2.62%
Cc1c(C(=O)NCc2ccc3c(c2)OCO3)cnn1C	-4.39%
COc1ccc(N2C(=O)c3ccccc3NC2c2ccc(O)c(OC)c2)cc1 (centres unmarked)	0.931%
COc1ccc2cc(C(C)c3nc4ccccc4[nH]3)ccc2c1 (centres unmarked)	-0.551%
CNC(=O)/C(=C\c1ccc(OC)cc1)NC(=O)c1cccc(Br)c1	2.38%
Cc1ccc(-c2coc3cc4oc(=O)c(CCC(=O)O)c(C)c4cc23)cc1	0.558%
Cc1cc(C)cc(NS(=O)(=O)c2ccc(F)cc2)c1	-3.67%
O=C(COc1ccccc1)Nc1ccc(CN2CCOCC2)cc1	-4.97%
c1cc(-c2nc3ccncc3[nH]2)ccn1	-2.63%
Nc1nc(-c2cccnc2)nn1C(=O)c1ccccc1Cl	2.31%
O=C(/C=C/c1ccco1)NCc1ccccc1C(F)(F)F	-5.03%
CCOC(=O)c1cc2c(=O)n3ccccc3nc2n(C2CCCCC2)/c1=N\C(=O)c1ccccc1F	-3.78%
COC(=O)/C(C#N)=C/c1c(Oc2ccccc2)nc2c(C)cccn2c1=O	0.315%

Structure (SMILES)	% Inhibition @ 10 uM
O=C(NCc1cccnc1)c1ccc(COc2ccc3c(c2)CCC3)o1	-1.33%
COc1ccc(C(=O)N2CCN(c3ccccc3F)CC2)cc1	-4.35%
CCc1ccc(/C=C2\Cc3ccccc3C2=O)cc1	-1.31%
O=C(CN(C1CCCCC1)S(=O)(=O)c1ccc(Br)cc1)NCc1ccccn1	3.72%
COc1cccc(CN2CCC(Cc3ccccc3)CC2)c1OC	2.47%
CCN(CC)C(=O)CN(C)S(=O)(=O)c1cccc2nsnc12	-3.23%
Cc1noc(/C=C/c2ccccc2F)c1S(=O)(=O)N1CCC(C(=O)N2CCCC2)CC1	4.88%
COc1ccccc1-c1cc(-c2ccc(Br)cc2)nc(O)n1	-1.5%
CCOC(=O)c1c(OCC)[nH]c2c1cc(O)c1ccccc12	1.12%
NC(=O)C1CCN(C(=O)CN(CC(=O)N2CCC(C(N)=O)CC2)Cc2ccco2)CC1	0.628%
COCc1nn2cc(-c3ccccc3)nc2s1	-4.54%
O=C(NCc1cccc(Cl)c1)C1CCCN(S(=O)(=O)N2CCOCC2)C1 (centres unmarked)	1.17%
CCc1ccc(OCc2nnnn2-c2ccccc2)cc1	0.569%
COC(=O)c1cc(-c2ccc(C)cc2)nc2ccc(Cl)cc12	3.66%
COc1cc(/C=C2/SC(=O)N(CC(=O)N3CCN(c4ccccc4)CC3)C2=O)ccc1O	2.76%
CCCCCCNC(=O)C1CCCCC1C(=O)O (centres unmarked)	2.01%
N#CC1=C(N)OC2=C(C(=O)CCC2)C1c1ccc(N2CCCC2)cc1 (centres unmarked)	-2.87%
CC(C)(C)NC1=N/C(=C\c2ccccc2)C(=O)N1c1ccc(Cl)cc1	-1.07%
CCc1ccc2nc(NC3=NCN(Cc4ccc(OC)cc4)CN3)nc(C)c2c1	2.1%
Cc1ccccc1NC(=O)CN1C(=O)N/C(=C\c2ccc(N3CCOCC3)c(F)c2)C1=O	-0.473%
c1ccc(-n2ncc3c(NC4CCCCC4)ncnc32)cc1	8.97%
Cc1cc2c(c(SCC(=O)NCCc3ccccc3)n1)C(=O)OC2	2.57%
COc1cc(/C=C/C(=O)N2CCC(C)CC2)ccc1OCc1ccccc1	5.12%
